# Source: paper PMC4336329 (PLoS ONE, 2015)
# Out of some 310,000 compounds screened, about 2,200 (0.71%) showed an effect of 50% or more. The effect is printed as a negative number. The list shows a part of the results.
# Biological target: human ether-à-go-go-related gene (hERG) potassium channel (human, UniProt Q12809)
# Experiment: primary screen, population patch clamp on CHO cells stably expressing hERG
# Sequence of human ether-à-go-go-related gene (hERG) potassium channel (Q12809 whole entry, looked up): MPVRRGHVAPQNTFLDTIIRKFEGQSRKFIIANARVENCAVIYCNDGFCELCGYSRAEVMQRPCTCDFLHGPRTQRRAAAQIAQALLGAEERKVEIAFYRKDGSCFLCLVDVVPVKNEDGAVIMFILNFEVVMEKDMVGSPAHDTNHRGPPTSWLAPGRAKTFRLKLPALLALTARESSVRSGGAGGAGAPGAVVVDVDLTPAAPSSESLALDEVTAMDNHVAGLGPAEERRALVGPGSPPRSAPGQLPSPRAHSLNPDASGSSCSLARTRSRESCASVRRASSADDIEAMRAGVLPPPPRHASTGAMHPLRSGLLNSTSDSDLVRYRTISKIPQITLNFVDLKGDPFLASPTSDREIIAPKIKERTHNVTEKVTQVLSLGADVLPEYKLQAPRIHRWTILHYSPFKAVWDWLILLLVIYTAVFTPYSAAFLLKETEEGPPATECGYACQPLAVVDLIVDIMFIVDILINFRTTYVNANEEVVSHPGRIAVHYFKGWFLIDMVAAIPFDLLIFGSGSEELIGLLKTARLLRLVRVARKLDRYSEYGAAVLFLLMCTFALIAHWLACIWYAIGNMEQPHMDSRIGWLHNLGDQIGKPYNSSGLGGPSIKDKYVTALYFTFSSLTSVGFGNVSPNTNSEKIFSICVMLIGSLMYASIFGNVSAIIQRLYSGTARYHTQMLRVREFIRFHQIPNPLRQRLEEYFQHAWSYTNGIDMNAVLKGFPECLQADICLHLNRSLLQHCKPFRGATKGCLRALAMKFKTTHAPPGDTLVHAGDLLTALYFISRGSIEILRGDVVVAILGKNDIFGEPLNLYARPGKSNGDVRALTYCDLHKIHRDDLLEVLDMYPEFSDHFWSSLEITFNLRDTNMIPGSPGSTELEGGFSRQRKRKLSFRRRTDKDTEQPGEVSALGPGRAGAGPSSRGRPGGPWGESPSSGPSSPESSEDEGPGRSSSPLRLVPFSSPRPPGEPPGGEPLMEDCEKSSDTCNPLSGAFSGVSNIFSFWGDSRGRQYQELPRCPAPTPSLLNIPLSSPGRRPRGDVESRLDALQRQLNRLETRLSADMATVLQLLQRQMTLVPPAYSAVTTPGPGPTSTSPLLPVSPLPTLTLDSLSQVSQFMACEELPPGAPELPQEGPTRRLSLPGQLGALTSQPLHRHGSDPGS
row,SMILES,"hERG current change (%, negative = inhibition) at 1uM [%]"
1,C=CCSc1nncn1/N=C/c1ccc(OC)cc1,-5.99
2,COc1ccc(-c2nc(-c3ccccc3)c(-c3cccs3)[nH]2)cc1OC,16.6
3,Cc1c(CC(=O)N2C[C@H]3C[C@@H](C2)c2cccc(=O)n2C3)c(=O)oc2c(C)c(O)ccc12,3.54
4,Cc1ccc2nc(NC(=O)c3ccc(OCC4CCCO4)cc3)sc2c1 (centres unmarked),10.5
5,CNC(=O)c1ccccc1S(=O)c1ccccc1COC(C)=O (centres unmarked),6.74
6,COc1ccc(OC(=O)N2CCOCC2)cc1,7.5
7,COc1ccc(NC(=O)c2noc3c2CCCCC3)cc1,7.21
8,CC(=O)c1cccc(NC(=O)CSc2nc(C3CC3)nc3ccccc23)c1,9.33
9,COc1ccc(Nc2nc(N)c(C(=O)c3ccc(F)cc3)s2)cc1,22.2
10,c1ccc(C2CCC(N3CCN(c4ccccc4)CC3)CC2)cc1 (centres unmarked),0.918
11,O=C(NC1CCOCC1)C1CCC(=O)N(Cc2ccc(Cl)cc2)C1 (centres unmarked),18.1
12,CCN(CC)CCNc1ccc(Cl)cc1[N+](=O)[O-].Cl,-41.1
13,Cc1ccc(S(=O)(=O)NN2C(=O)/C(=C/c3ccccn3)SC2=S)cc1,3.98
14,O=C(Nc1ccccc1F)c1cc(S(=O)(=O)N2CCOCC2)cs1,12.4
15,Nc1ccc2oc(-c3ccccc3Cl)cc(=O)c2c1O,6.61
16,COc1ccc(-n2nnnc2CNC(=O)C(=O)c2c[nH]c3ccccc23)cc1,18.7
17,COC(=O)c1ccccc1S(=O)(=O)N1CCC(C(=O)OC(C)C(=O)Nc2ccc(NC(C)=O)cc2)CC1 (centres unmarked),0.0636
18,CCOC(=O)[C@H]1[C@H]2COc3ccc(OC)cc3[C@@H]2N2C(=O)CN(C)C(=O)[C@@]12C,10.1
19,CN1C(=O)N(C)C(=O)C2(Cc3c(ccc4ccccc34)N(C)C2)C1=O,12.3
20,C/C(=N\N1CCN(Cc2ccc(C)cc2)CC1)c1ccco1,-44.7
21,CCCn1nc2cc(C(=O)NCC34CC5CC(CC(C5)C3)C4)ccc2c1OCC,12.7
22,O=C(c1ccncc1)N1CCN(C(=O)c2cccc3ccccc23)CC1,12
23,O=C(/C=C/c1ccc(OC(F)F)cc1)Nc1cccc(S(=O)(=O)N2CCOCC2)c1,5.77
24,COCCn1c(NC(=S)NC(=O)C2CC2)cc(=O)[nH]c1=O,13.7
25,Clc1ccccc1Nc1nnc(-c2ccncc2)s1,4.73
26,CCCCNC(=O)C(c1ccc(OCC(=O)OC)c(C(=O)OC)c1)N(CCOC)C(=O)CCCCCN1C(=O)NC(c2ccc(-c3ccccc3)cc2)C(C(=O)OCc2ccccc2)=C1C (centres unmarked),12.6
27,CC(=O)N1CCN(c2ccccc2NC(=O)COc2ccc(Br)cc2)CC1,8.81

row,SMILES,"hERG current change (%, negative = inhibition) at 1uM [%]"
1,COc1ccc(/C=N\NS(=O)(=O)c2ccc(C)cc2)cc1COc1ccccc1[N+](=O)[O-],-1.33
2,Cc1ccc(CNC(=O)c2cn(C)c3ccc(S(=O)(=O)N4CCOCC4)cc3c2=O)cc1,10.9
3,O=C(Nc1cc(C(F)(F)F)ccc1N1CCOCC1)c1ccco1,11.1
4,COc1ccc(Cl)cc1NC(=O)COc1ccc2c(c1)OCO2,15.9
5,Cc1c(Cl)cccc1NC(=O)COC(=O)Cc1ccsc1,5.97
6,C[C@]12CCC(=O)C=C1C=C[C@@H]1[C@@H]2CC[C@@]2(C)[C@H]1CC[C@@]21CCC(=O)O1,2.93
7,CCN(CC)S(=O)(=O)c1ccc(N2CCOCC2)c(NS(=O)(=O)c2ccc(C)c(C)c2)c1,8.34
8,COc1ccc(NC(=S)NC(NC(=O)c2cccc(C)c2)C(Cl)(Cl)Cl)c([N+](=O)[O-])c1 (centres unmarked),9.22
9,CCCC[n+]1ccn(-c2nc3ccccc3nc2[N-]S(=O)(=O)c2ccc(Br)cc2)c1,4.61
10,CC1(C)C(=O)N(c2ccccc2Cl)C(=O)c2ccccc21,17.4
11,NNC(=O)C1CC1(c1ccccc1)c1ccccc1 (centres unmarked),9.99
12,CC1=NN(c2ccc(C(=O)O)cc2)C(=O)/C1=C/c1ccc(-c2ccccc2F)o1,15.2
13,Cc1ccc(SCc2nnc(NC(=O)c3ccccc3)s2)cc1,0.501
14,CC(=O)Nc1ccc(NS(=O)(=O)Cc2ccccc2)cc1,12.7
15,COc1ccc(OC)c(N(/C(N)=N/c2nc(C)cc(C)n2)S(=O)(=O)c2ccc(NC(C)=O)cc2)c1,6.4
16,COc1ccc(NC(=O)CNC(=O)C23CC4CC(CC(C4)C2)C3)c(OC)c1,-1.59
17,O=C(NCc1cccs1)C(=O)NCC(c1ccco1)N1CCN(c2ccccc2)CC1 (centres unmarked),14.2
18,O=C(Nc1cc([N+](=O)[O-])ccc1O)c1cccc(C(=O)Nc2cc([N+](=O)[O-])ccc2O)c1,18.4
19,COc1ccc(S(=O)(=O)N2CCC(C(=O)NCC3CCCO3)CC2)cc1 (centres unmarked),-3.75
20,COc1ccc(OC)c(/C=C/C(=O)OCC(=O)NCc2ccco2)c1,5.73
21,COc1ccccc1N1CCN(CC(=O)N2CCCC2)CC1.O=C(O)C(=O)O,7.69
22,CCOC(=O)C1CCN(S(=O)(=O)c2ccc(CC)cc2)CC1,13.7
23,C=CCNC(=O)c1ccccc1SCc1c(C)noc1C,14
24,Cc1ccc(OCC(O)Cn2c(N3CCCCC3)nc3c2c(=O)[nH]c(=O)n3C)cc1 (centres unmarked),10.4
25,CCN(CC)C(=O)Cn1cc(S(=O)(=O)CC(=O)NCc2ccccc2)c2ccccc21,3.37
26,CCOC(=O)c1nc(C)sc1-c1ccnn1S(=O)(=O)c1cccc(Cl)c1,19.4
